Source: patent US20240182596A1, “ANTI-NAPI2B ANTIBODIES AND ANTIBODY-DRUG-CONJUGATES BASED THEREON, THERAPEUTIC METHODS AND USES THEREOF” (Tubulis GmbH, priority 2022, published 2024)

B1: AV25: humanized anti-NaPi2b IgG1 antibody, light chain SEQ ID NO: 6, heavy chain SEQ ID NO: 7, Fc-silenced (LALA) (antibody)
heavy: EVQLVQSGAEVVKPGASVKMSCKASGYTFTGYIIHWVKQAPGQGLEWIGAIYPGSGATSYKQKFRGRATLTADTSTSTVYMELSSLRSEDSAVYYCARGETARATFAYWGQGTLVTVSS[human IgG1 constant region with changes skipped]
light: DIQMTQSPSSLSASVGDRVTITCSASQDIGNFLNWYQQKPGKTVKVLIYYASSLYSGVPSRFSGSGSGTDYTLTISSLQPEDFATYYCQQYSKLPLTFGQGTKLELKRTVAAPSVFIFPPSDEQLKSGTASVVCLLNNFYPREAKVQWKVDNALQSGNSQESVTEQDSKDSTYSLSSTLTLSKADYEKHKVYACEVTHQGLSSPVTKSFNRGEC
modifications: Heavy chain without a signal seqeunce; Light chain without a signal seqeunce
B2: AV25-P5(PEG24)-VC-PAB-Exatecan DAR 8: AV25 antibody conjugated to P5(PEG24)-VC-PAB-Exatecan, DAR8 (conjugate)
heavy: EVQLVQSGAEVVKPGASVKMSCKASGYTFTGYIIHWVKQAPGQGLEWIGAIYPGSGATSYKQKFRGRATLTADTSTSTVYMELSSLRSEDSAVYYCARGETARATFAYWGQGTLVTVSS[human IgG1 constant region with changes skipped]
light: B1 light

How the values were obtained:
[1] = target: T1, HEK293 cells expressing human Napi2a (SLC34A1) (Homo sapiens, UniProt Q06495); assay: Binding to human NaPi2a evaluated by flow cytometry; conditions: 0.002 to 200 nM
T1 construct: expressed in transfected cells; host or cells: HEK293
T1 sequence (Q06495 1-639): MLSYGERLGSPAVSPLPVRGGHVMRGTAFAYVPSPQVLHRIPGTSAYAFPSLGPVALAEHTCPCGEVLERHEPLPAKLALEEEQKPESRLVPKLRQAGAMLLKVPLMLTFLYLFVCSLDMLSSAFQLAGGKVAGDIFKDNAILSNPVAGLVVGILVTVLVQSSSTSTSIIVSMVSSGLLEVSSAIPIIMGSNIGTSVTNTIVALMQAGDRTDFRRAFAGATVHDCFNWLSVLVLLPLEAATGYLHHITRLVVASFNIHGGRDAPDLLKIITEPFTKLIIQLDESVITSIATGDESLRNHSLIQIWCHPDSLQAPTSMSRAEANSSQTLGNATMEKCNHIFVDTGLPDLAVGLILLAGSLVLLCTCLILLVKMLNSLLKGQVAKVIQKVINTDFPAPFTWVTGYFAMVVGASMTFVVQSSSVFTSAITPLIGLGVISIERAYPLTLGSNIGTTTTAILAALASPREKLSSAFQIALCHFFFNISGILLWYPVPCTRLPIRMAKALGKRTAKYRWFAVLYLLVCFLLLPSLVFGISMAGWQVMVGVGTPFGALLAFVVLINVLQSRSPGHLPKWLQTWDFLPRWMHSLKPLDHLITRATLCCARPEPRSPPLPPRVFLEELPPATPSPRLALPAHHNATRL
Protocol: (§1) To determine concentration-dependent binding, HEK293 cells transiently or stably expressing human Napi2a-, Napi2b- and Napi2c-mCherry were incubated with antibodies or ADCs in concentrations ranging from 0.002 to 200 nM, stained with an Alexa-dye-labeled anti-human IgG H+L secondary antibody (Thermo Fisher Scientific), and analyzed by flow cytometry. Mean fluorescence intensity (MFI) ratios were normalized to the non-specific binding control. The assay was performed in duplicates and data points were analyzed by a non-linear regression using a one-site specific binding model using Prism 9 software.

[2] = target: T2, HEK293 cells expressing human Napi2c (SLC34A3) (Homo sapiens, UniProt Q8N130); assay: Binding to human NaPi2c evaluated by flow cytometry; conditions: 0.002 to 200 nM
T2 construct: expressed in transfected cells; host or cells: HEK293
T2 sequence (Q8N130 1-599): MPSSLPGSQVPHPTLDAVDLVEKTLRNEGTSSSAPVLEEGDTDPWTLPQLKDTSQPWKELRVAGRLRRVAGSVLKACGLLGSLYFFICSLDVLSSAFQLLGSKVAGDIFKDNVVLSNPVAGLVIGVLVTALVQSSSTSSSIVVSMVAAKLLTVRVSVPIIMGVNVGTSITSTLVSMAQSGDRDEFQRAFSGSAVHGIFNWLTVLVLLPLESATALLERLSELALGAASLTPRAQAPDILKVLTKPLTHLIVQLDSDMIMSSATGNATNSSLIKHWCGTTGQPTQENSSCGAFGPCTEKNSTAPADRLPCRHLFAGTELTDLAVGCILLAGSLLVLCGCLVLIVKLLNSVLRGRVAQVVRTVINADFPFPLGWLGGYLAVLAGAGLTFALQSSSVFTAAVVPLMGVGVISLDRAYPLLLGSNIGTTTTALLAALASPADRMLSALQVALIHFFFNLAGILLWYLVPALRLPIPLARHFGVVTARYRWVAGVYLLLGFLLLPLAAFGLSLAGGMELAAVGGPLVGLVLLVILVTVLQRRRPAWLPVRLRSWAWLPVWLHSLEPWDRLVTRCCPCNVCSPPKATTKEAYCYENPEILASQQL
Protocol: as §1

[3] = target: T3, NaPi2b (Homo sapiens, UniProt O95436); assay: Binding KD (nmol/L) | ELISA
T3 construct: Napi2b antigen consisting of Napi2b-extracellular-loop2 expressed as Fc-fusion-6-His-tagged protein in Expi-HEK293 cells; Fc-fusion; 6-His; made in house; host or cells: Expi-HEK293 cells
T3 sequence (O95436 whole entry, looked up): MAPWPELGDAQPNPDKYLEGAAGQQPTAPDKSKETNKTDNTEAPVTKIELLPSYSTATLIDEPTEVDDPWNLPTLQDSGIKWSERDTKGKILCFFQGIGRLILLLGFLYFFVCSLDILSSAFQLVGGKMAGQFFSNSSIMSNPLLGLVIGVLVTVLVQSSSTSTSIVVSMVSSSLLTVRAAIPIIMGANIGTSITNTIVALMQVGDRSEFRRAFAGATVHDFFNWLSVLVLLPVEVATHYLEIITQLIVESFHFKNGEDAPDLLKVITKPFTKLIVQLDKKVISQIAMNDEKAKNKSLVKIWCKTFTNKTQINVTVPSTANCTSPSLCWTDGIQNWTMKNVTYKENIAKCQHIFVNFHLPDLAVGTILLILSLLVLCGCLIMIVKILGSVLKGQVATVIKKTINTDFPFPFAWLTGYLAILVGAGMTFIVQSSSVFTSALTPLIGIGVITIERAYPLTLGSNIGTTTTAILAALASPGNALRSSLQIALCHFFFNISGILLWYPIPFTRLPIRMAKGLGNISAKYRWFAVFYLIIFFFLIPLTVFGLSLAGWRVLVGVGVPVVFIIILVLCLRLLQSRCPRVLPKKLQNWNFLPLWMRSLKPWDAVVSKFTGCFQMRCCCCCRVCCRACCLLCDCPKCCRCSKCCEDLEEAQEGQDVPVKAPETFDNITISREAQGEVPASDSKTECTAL
Text: Table printed on a drawing sheet, FIG. 20
Head of the field: Binding KD (nmol/L) | ELISA
First copying reader's note: Decimal commas and decimal points are mixed as printed; some columns (ADC retention time, cytotoxicity) refer to the antibody-drug conjugates made from the listed mAbs.
Where the first naming reader finds the target: passage: An antibody drug conjugate (ADC) comprising the anti-NaPi2b antibody according to any one of the preceding items.

[4] = 0.2 mg/ml in at least 80% serum of different species, 37° C., up to 7 days
Protocol: Samples for day 0 were directly processed further.
Afterwards, the supernatant was removed and the resin washed 2 times with 1 mL PBS-T. Following by incubation for 15 minutes with 10 μl 100 mM Glycin buffer pH 2.5 at room temperature. This solution was rebuffered to PBS by using 75 μL Zeba™ Spin Desalting Columns with 7K MWCO (Thermo Fisher Scientific, USA). The samples were processed further for MS-measurements, as described above. The Drug-to-Antibody ratio (DAR) was calculated from the MS intensities of the light chain adducts conjugated to 0 or 1 and heavy chain adducts conjugated to 0-3 molecules of P5(PEG24)-VC-PAB-Exatecan.

[5] = tested on: Lu7700 non-small cell lung cancer (NSCLC) model; assay: Dose response PDX study Lu7700; type: in vivo, NMRI nu/nu mice; conditions: 5, 3 or 1 mg/kg once at day 0, i.v.
[6] = 10 and 20 mg/kg i.v.

Molecule	Binding (MFI ratio) [1]	Binding (MFI ratio) [2]	Kd [3] [nM]	Change in Drug-to-Antibody Ratio (DAR) / payload loss in serum [4]	Efficacy compared to vehicle control [5]	PK exposure profile / in vivo clearance [6]
B1	but not Napi2a	not Napi2a (SLC34A1) or Napi2c	71	–	–	–
B2	–	–	–	No change in the Drug-to-Antibody Ratio (DAR)	highest and long-lasting efficacy	good exposure profile, without enhanced in vivo clearance
